Laboratory results from the supplement of paper PMC10126150.
Values marked as one replicate rest on one cluster of the flow cell; about a third of the high ones do not repeat.

Tested on: ATP
Assay: switch fluorescence ratio, 500 uM ATP over buffer (Cy3 cluster intensity, sum of 5 cycles each) (fold (ratio)); higher = stronger signal-on switching upon ATP binding; sequences stand for … in TCGTCGGCAGCGTCAGATGTGTATAAGAGACAGTTTTTTTTTTTTTTTTTTTTTTTTT…TC
Details: aptamer strand: ATP DNA aptamer (quencher-CACCTGGGGGAGTATTGCGGAGGAAGG + anchor), 100 nM annealed; ATP concentration: 500 uM; one replicate
How it was run: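 Cy3-labelled switching-strand clusters on a modified Illumina MiSeq flow-cell were annealed to 100 nM quencher-labelled ATP aptamer and imaged first in selection buffer, then after 15 min with 500 uM ATP at 22 °C. NaOH stripping and re-annealing separated each of five buffer/ATP cycles, and clusters outside 100-1000 RFU were excluded. The fluorescence ratio sums target-cycle Cy3 intensity over buffer-cycle Cy3 intensity per cluster and averages it per switch-domain sequence.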
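Note: ATP exposure 15 min at 22 °C before imaging.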

**Q.** With ATGTGGTCG as the sequence, how does the switch fluorescence ratio read?
**A.** 1.03

**Q.** For ATGTGGTTGA, which switch fluorescence ratio is on record?
**A.** 0.972

**Q.** With ATGTGTGCGA as the sequence, how does the switch fluorescence ratio read?
**A.** 1.03

**Q.** For ATGTTAGACA, which switch fluorescence ratio is on record?
**A.** 1.05

**Q.** For ATGTTCAAAA, which switch fluorescence ratio is on record?
**A.** 0.971

**Q.** With ATGTTCAGT as the sequence, how does the switch fluorescence ratio read?
**A.** 0.977

**Q.** Which switch fluorescence ratio does the source give for ATGTTCCAGC here?
**A.** 0.963

**Q.** How did the switch fluorescence ratio turn out when ATGTTGCGAA was run?
**A.** 0.991

**Q.** For ATGTTGTCCT, which switch fluorescence ratio is on record?
**A.** 1.01

**Q.** ATGTTTAGTG was tested. Which switch fluorescence ratio did it give?
**A.** 0.95

**Q.** How did the switch fluorescence ratio turn out when ATGTTTGCAA was run?
**A.** 1.05

**Q.** Which switch fluorescence ratio does the source give for ATGTTTTGAC here?
**A.** 0.983

**Q.** ATTAAAAATT was tested. Which switch fluorescence ratio did it give?
**A.** 0.986

**Q.** With ATTAAATGCG as the sequence, how does the switch fluorescence ratio read?
**A.** 1.04

**Q.** ATTAAATTCA was tested. Which switch fluorescence ratio did it give?
**A.** 0.995

**Q.** For ATTAACGTCT, which switch fluorescence ratio is on record?
**A.** 1

**Q.** Which switch fluorescence ratio does the source give for ATTAACTAGC here?
**A.** 0.988

**Q.** With ATTAAGGGA as the sequence, how does the switch fluorescence ratio read?
**A.** 1

**Q.** Which switch fluorescence ratio does the source give for ATTAATAATT here?
**A.** 1.02

**Q.** How did the switch fluorescence ratio turn out when ATTAATCGGG was run?
**A.** 1.98

**Q.** ATTAATGCAT was tested. Which switch fluorescence ratio did it give?
**A.** 1.01

**Q.** Which switch fluorescence ratio does the source give for ATTACACCAT here?
**A.** 1.09

**Q.** How did the switch fluorescence ratio turn out when ATTACCCCCT was run?
**A.** 1.6

**Q.** Which switch fluorescence ratio does the source give for ATTACGACGG here?
**A.** 1.06

**Q.** How did the switch fluorescence ratio turn out when ATTACTATTT was run?
**A.** 1.03

**Q.** Which switch fluorescence ratio does the source give for ATTACTGAAA here?
**A.** 1

**Q.** Which switch fluorescence ratio does the source give for ATTACTGTTA here?
**A.** 1.05

**Q.** ATTACTTCTA was tested. Which switch fluorescence ratio did it give?
**A.** 1.05

**Q.** ATTAGAAGAG was tested. Which switch fluorescence ratio did it give?
**A.** 0.981

**Q.** With ATTAGATGGC as the sequence, how does the switch fluorescence ratio read?
**A.** 0.951

**Q.** How did the switch fluorescence ratio turn out when ATTAGATTAT was run?
**A.** 0.998

**Q.** For ATTAGCCACT, which switch fluorescence ratio is on record?
**A.** 1.05

**Q.** Which switch fluorescence ratio does the source give for ATTAGCCGGC here?
**A.** 1.01

**Q.** With ATTAGCGAGG as the sequence, how does the switch fluorescence ratio read?
**A.** 1.03

**Q.** Which switch fluorescence ratio does the source give for ATTAGCTAAA here?
**A.** 1.02

**Q.** For ATTAGCTATT, which switch fluorescence ratio is on record?
**A.** 1.02

**Q.** ATTAGGGATG was tested. Which switch fluorescence ratio did it give?
**A.** 0.95

**Q.** How did the switch fluorescence ratio turn out when ATTAGGTGCG was run?
**A.** 0.946

**Q.** How did the switch fluorescence ratio turn out when ATTATATCTA was run?
**A.** 1.02

**Q.** With ATTATATCTC as the sequence, how does the switch fluorescence ratio read?
**A.** 1.02

**Q.** How did the switch fluorescence ratio turn out when ATTATCAAAG was run?
**A.** 1.02

**Q.** Which switch fluorescence ratio does the source give for ATTATCCGA here?
**A.** 0.997

**Q.** How did the switch fluorescence ratio turn out when ATTATCCGAT was run?
**A.** 1.01

**Q.** ATTATCGGGG was tested. Which switch fluorescence ratio did it give?
**A.** 1.03

**Q.** With ATTATCGGTT as the sequence, how does the switch fluorescence ratio read?
**A.** 1

**Q.** For ATTATCTGC, which switch fluorescence ratio is on record?
**A.** 1.01

**Q.** ATTATGAGGT was tested. Which switch fluorescence ratio did it give?
**A.** 1

**Q.** For ATTATGGG, which switch fluorescence ratio is on record?
**A.** 0.947

**Q.** Which switch fluorescence ratio does the source give for ATTATGTACG here?
**A.** 1.09

**Q.** How did the switch fluorescence ratio turn out when ATTATTAGCA was run?
**A.** 0.981

**Q.** How did the switch fluorescence ratio turn out when ATTATTGGAT was run?
**A.** 1.01

**Q.** For ATTCAAGTGT, which switch fluorescence ratio is on record?
**A.** 1.06

**Q.** ATTCACATGA was tested. Which switch fluorescence ratio did it give?
**A.** 1.03

**Q.** With ATTCACGAAT as the sequence, how does the switch fluorescence ratio read?
**A.** 1.01

**Q.** ATTCAGAAT was tested. Which switch fluorescence ratio did it give?
**A.** 1.01

**Q.** How did the switch fluorescence ratio turn out when ATTCAGGGTG was run?
**A.** 1.07

**Q.** For ATTCAGTGAA, which switch fluorescence ratio is on record?
**A.** 0.983

**Q.** With ATTCCCCAGA as the sequence, how does the switch fluorescence ratio read?
**A.** 1.14

**Q.** For ATTCCCCTAT, which switch fluorescence ratio is on record?
**A.** 1.01

**Q.** ATTCCCTGTA was tested. Which switch fluorescence ratio did it give?
**A.** 1.03

**Q.** With ATTCCCTTTA as the sequence, how does the switch fluorescence ratio read?
**A.** 1.04

**Q.** Which switch fluorescence ratio does the source give for ATTCCGGACG here?
**A.** 0.964

**Q.** ATTCCGTGCC was tested. Which switch fluorescence ratio did it give?
**A.** 1.28

**Q.** ATTCGATCTT was tested. Which switch fluorescence ratio did it give?
**A.** 1.01

**Q.** For ATTCGCACAA, which switch fluorescence ratio is on record?
**A.** 1.2

**Q.** For ATTCGCCCAC, which switch fluorescence ratio is on record?
**A.** 1.17

**Q.** With ATTCGCTTG as the sequence, how does the switch fluorescence ratio read?
**A.** 0.994

**Q.** For ATTCGGAATG, which switch fluorescence ratio is on record?
**A.** 0.962

**Q.** Which switch fluorescence ratio does the source give for ATTCGGCCAG here?
**A.** 1.01

**Q.** Which switch fluorescence ratio does the source give for ATTCGGGCAA here?
**A.** 1.31

**Q.** ATTCGGTGCC was tested. Which switch fluorescence ratio did it give?
**A.** 1

**Q.** With ATTCGTCTGT as the sequence, how does the switch fluorescence ratio read?
**A.** 1.02

**Q.** How did the switch fluorescence ratio turn out when ATTCTAGGAA was run?
**A.** 1.06

**Q.** How did the switch fluorescence ratio turn out when ATTCTATACT was run?
**A.** 1

**Q.** For ATTCTCGTTC, which switch fluorescence ratio is on record?
**A.** 1.02

**Q.** For ATTCTGGTCA, which switch fluorescence ratio is on record?
**A.** 0.972

**Q.** How did the switch fluorescence ratio turn out when ATTCTTCACA was run?
**A.** 1.02

**Q.** For ATTCTTCTCG, which switch fluorescence ratio is on record?
**A.** 1.02

**Q.** How did the switch fluorescence ratio turn out when ATTCTTTAGC was run?
**A.** 0.995

**Q.** ATTGAAACTT was tested. Which switch fluorescence ratio did it give?
**A.** 1.02

**Q.** Which switch fluorescence ratio does the source give for ATTGAGCCGC here?
**A.** 1.03

**Q.** For ATTGATACAC, which switch fluorescence ratio is on record?
**A.** 1.07

**Q.** ATTGCAGGGC was tested. Which switch fluorescence ratio did it give?
**A.** 0.999

**Q.** For ATTGCCTTAC, which switch fluorescence ratio is on record?
**A.** 2.17

**Q.** For ATTGCGAGGA, which switch fluorescence ratio is on record?
**A.** 0.953

**Q.** With ATTGCGGCGG as the sequence, how does the switch fluorescence ratio read?
**A.** 1.05

**Q.** How did the switch fluorescence ratio turn out when ATTGCGGTCC was run?
**A.** 1.04

**Q.** Which switch fluorescence ratio does the source give for ATTGCTACG here?
**A.** 1.04

**Q.** ATTGCTGCCG was tested. Which switch fluorescence ratio did it give?
**A.** 1.02

**Q.** For ATTGCTTAGG, which switch fluorescence ratio is on record?
**A.** 0.999

**Q.** ATTGCTTT was tested. Which switch fluorescence ratio did it give?
**A.** 1.01

**Q.** Which switch fluorescence ratio does the source give for ATTGGAGCAT here?
**A.** 1.17

**Q.** Which switch fluorescence ratio does the source give for ATTGGAGCTC here?
**A.** 0.991

**Q.** How did the switch fluorescence ratio turn out when ATTGGGATTA was run?
**A.** 1

**Q.** ATTGGGCGAT was tested. Which switch fluorescence ratio did it give?
**A.** 1

**Q.** ATTGTATAAT was tested. Which switch fluorescence ratio did it give?
**A.** 0.989

**Q.** With ATTGTATTTC as the sequence, how does the switch fluorescence ratio read?
**A.** 1.01

**Q.** For ATTGTCAGGT, which switch fluorescence ratio is on record?
**A.** 1

**Q.** With ATTGTCCGGC as the sequence, how does the switch fluorescence ratio read?
**A.** 1.06

**Q.** For ATTGTCGATG, which switch fluorescence ratio is on record?
**A.** 1.18

**Q.** How did the switch fluorescence ratio turn out when ATTGTCTGCG was run?
**A.** 0.987
